From the supplement of paper PMC3334620
Over roughly 33,000 sequences, “E-score (-0.5 to 0.5)” has its median near -0.056; the highest 2% begin near 0.38. Some of the results follow.

target: Stb4 (UniProt P50104); experiment: PBM E-score (8-mer binding enrichment) (E-score (-0.5 to 0.5)); higher = stronger / more preferred TF binding; most listed sequences are background and not binding sites; conditions: protein concentration: 200 nM; construct: GST-DNA-binding domain
Experimental: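 Universal 'all 10-mer' protein binding microarrays (Agilent AMADID 015681) probed with GST-tagged S. cerevisiae TFs (full-length or DBD) made by in vitro transcription/translation (PURExpress), about 100-200 nM. Bound TF was detected with fluorescent anti-GST. Each ungapped 8-mer (which stands for itself and its reverse complement) is scored by the PBM enrichment score (E-score), a modified Wilcoxon-Mann-Whitney statistic from -0.5 to +0.5, computed with the Universal PBM Analysis Suite. Scale: above 0.35 generally sequence-specific binding.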

Sequence | PBM E-score
CGCTAATA | 0.0293
ACTACCGG | 0.186
GCAATGGA | -0.0896
AAACAAGT | -0.188
CTGGGGCC | -0.0199
ACCACATC | 0.0652
AACTTTGG | -0.105
ATGTTGAG | -0.0742
GCAATTCC | 0.163
CCAAATCG | -0.0151
CCTCAGAC | -0.0262
GGGGTACA | -0.045
ACAATACC | -0.00908
AACAGGTG | -0.269
ACCGTGAT | 0.0344
ACCGGGTG | 0.258
ACCTGACG | -0.264
GCACCCCC | -0.0162
CTGACCAA | -0.024
AGCAACCT | -0.127
GGGGAACC | -0.137
TGGTCACA | 0.0975
AGCAGTAC | 0.0047
CTCTCGTA | -0.0374
ACCACGTC | -0.107

Sequence | PBM E-score
CTTGGGCC | -0.0676
AAATATGG | -0.0857
ATCAAGGG | -0.0462
CAGGATTA | 0.00923
GTATCAAC | 0.0997
ACGACGAT | 0.0327
CGAGCACC | 0.204
TACGCATA | -0.0809
CTTGTCGC | -0.0633
TATCGAAA | -0.13
ACTGAGAT | -0.258
AGGGAACA | -0.067
AACTAAAG | -0.256
GCGCCCGC | -0.0138
GCGATCCC | -0.018
CCAGCGCG | -0.0531
CATCGGTC | 0.114
GCAAGAAC | -0.101
TCAATTGA | 0.034
CCTGACTC | -0.211
CATCTTCA | -0.182
CAGAGATG | -0.266
AGACCTTC | -0.188
GCCCATCA | -0.113
AACTGAAA | -0.121

Sequence | PBM E-score
CTCTCGCA | -0.148
CCCAAGAC | -0.0533
CCCTTGTA | -0.0961
TCCGGGAA | 0.388
CAGAGATC | -0.0651
TAGGCACA | -0.135
GTGATTTA | 0.124
CCCTCACG | -0.167
AATCGTGG | -0.218
AATTTTTG | -0.191
AGACGACG | -0.0786
ATCCAGTA | -0.0376
GCATGCCC | 0.012
GGGTTGAC | -0.108
AAAAGGAG | -0.0435
CAGAAATA | -0.163
CTCCGAAG | 0.413
AACGGCAC | 0.105
ATGCCCTC | -0.146
GAGCTCGA | -0.0103
ATCATCGC | -0.269
CCTTTGTC | -0.141
CTACAGAA | -0.155
TCTAACCA | -0.181
CGGCCGGA | 0.349

Sequence | PBM E-score
CCTACAGC | -0.0731
AAACATTA | -0.133
CCGCTTAG | 0.134
CCCACAGG | -0.217
AAGTCAAA | -0.108
TGAGGACA | -0.21
AAGCACGG | 0.0998
GCTCGCAC | 0.0901
GCAGAATA | -0.0302
CAACTCAC | -0.227
ACGAGCCC | -0.198
TGAACAAA | 0.021
ATTCTATG | -0.00015
AGGATATG | -0.156
ATACCGAA | 0.392
ATACGGGC | 0.155
CAGTCTGG | -0.156
ACGCACTA | -0.155
CTTTGCCC | -0.0931
AGCGCGGA | 0.224
ATGTATGG | -0.277
CCCCTGAA | -0.129
ATCTATTA | 0.0372
AGACCCCC | -0.0201
CATCCAAG | -0.133

Sequence | PBM E-score
CCTTCAAG | -0.097
AGCACGAT | -0.207
AAGGGTAG | 0.0126
GCTAGTTA | 0.032
ATAGTAGA | -0.0928
ACGATGCA | -0.131
AGTATCTG | -0.011
ACTGTTGA | -0.199
TATATGAA | -0.0698
GAGGTATA | -0.159
ATGTTCAA | 0.0011
ACAATGCA | -0.0359
CAGGTTGG | -0.0724
CCGCACGG | 0.153
CCGCCTTA | -0.0162
CGAAAGCC | 0.0757
CGTGGTTA | -0.233
AAGACACG | 0.0111
AGTCCGTC | 0.114
AGTACTAA | -0.207
AAGTTCCT | -0.00611
AGATTCCA | -0.131
TCTGGCCA | -0.244
ATGGGGCG | -0.0357
GCGATACC | -0.0864

Sequence | PBM E-score
AGAACTGA | -0.162
CCTTAGCA | -0.0552
ATCGACGC | -0.126
GGCCAGAC | 0.00928
ATTTAGTA | 0.0191
GGATTAAA | 0.146
GCGGTTGA | 0.0648
GGCCAACC | 0.127
TATACGAA | -0.0052
AATGATAA | 0.0517
ACACTCCT | -0.00879
AATTCCAC | 0.122
AGGGAGTA | -0.146
CACGTTGC | -0.0203
AAGTTCAT | 0.0868
GAGCGCGC | 0.00394
GGACCCCC | 0.0372
ACTTGCAC | -0.125
AGACCACC | -0.18
AGGCGGCC | 0.022
AGGTCGAC | -0.121
AAACGTAT | -0.0474
ACCGTAAA | -0.0328
ACTGGCAA | -0.184
AAATGTGG | -0.0435

Sequence | PBM E-score
GCGCAAAA | 0.00665
CAAGGCAA | -0.217
GGTACGTA | 0.125
ACCCAAAA | -0.0695
ACCCGGCG | 0.3
TATATACA | -0.0996
AGCAGACT | -0.168
AGGGCGAT | -0.278
CCATATCC | 0.177
GCCTTCGC | -0.00246
CGTGCGAA | -0.0361
ACAGGCTG | -0.343
GACAAGGC | -0.149
ACGGGAAA | 0.276
AATAACTG | -0.0326
GCTCGAGC | -0.0154
CTATTTCC | 0.1
CAGACTGA | 0.00844
ACATACGT | -0.164
CACACCCC | 0.0433
AGGGGGTG | -0.23
ATAGGTCA | -0.153
